The full ranking holds about 33,000 sequences; the median of “E-score (-0.5 to 0.5)” is about -0.021, and the highest 2% start at about 0.32. Some of the results follow.
Each sequence was assayed against T1, Zap1 (UniProt P47043) (assay: PBM E-score (8-mer binding enrichment) (E-score (-0.5 to 0.5)); higher = stronger / more preferred TF binding; most listed sequences are background and not binding sites). Conditions: protein concentration: 200 nM; construct: GST-full length.
T1 sequence: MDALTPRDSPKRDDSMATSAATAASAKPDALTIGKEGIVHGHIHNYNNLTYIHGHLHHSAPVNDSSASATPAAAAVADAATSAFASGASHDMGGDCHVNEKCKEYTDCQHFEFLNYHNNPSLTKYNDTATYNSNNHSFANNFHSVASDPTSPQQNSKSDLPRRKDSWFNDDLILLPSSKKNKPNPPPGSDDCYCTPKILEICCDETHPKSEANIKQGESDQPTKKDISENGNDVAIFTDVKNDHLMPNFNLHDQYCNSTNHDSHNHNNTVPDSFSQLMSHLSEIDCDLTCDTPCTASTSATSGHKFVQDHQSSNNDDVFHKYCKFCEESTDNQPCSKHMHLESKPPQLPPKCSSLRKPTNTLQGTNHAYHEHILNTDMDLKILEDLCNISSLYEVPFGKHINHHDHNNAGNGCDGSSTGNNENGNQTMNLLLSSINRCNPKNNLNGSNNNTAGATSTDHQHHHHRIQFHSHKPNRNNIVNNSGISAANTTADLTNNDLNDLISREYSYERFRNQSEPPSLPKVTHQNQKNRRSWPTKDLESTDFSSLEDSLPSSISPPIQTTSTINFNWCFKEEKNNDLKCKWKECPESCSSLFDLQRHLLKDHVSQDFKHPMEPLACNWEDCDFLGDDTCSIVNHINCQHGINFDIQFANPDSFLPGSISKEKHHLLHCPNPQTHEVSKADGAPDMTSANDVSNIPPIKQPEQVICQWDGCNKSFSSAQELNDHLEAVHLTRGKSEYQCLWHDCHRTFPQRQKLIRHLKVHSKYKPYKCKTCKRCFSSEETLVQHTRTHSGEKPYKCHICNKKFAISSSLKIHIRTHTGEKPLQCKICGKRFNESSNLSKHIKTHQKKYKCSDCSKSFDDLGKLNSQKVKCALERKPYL
Summary of the method: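 Detection of bound protein used fluorescent anti-GST, with scans normalised by masliner. The proteins were GST-tagged yeast transcription factors applied at about 100-200 nM to universal all-10-mer Agilent arrays made double-stranded by primer extension. Each ungapped eight-base word, pooled with its reverse complement, was scored with an E-score from the Universal PBM Analysis Suite.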

Row | Sequence | PBM E-score
1 | TACATGCA | -0.145
2 | AACGAATC | -0.0538
3 | GATTAGAC | -0.121
4 | GCACATGC | -0.0933
5 | GGTGCTAC | -0.141
6 | AGCGGACC | 0.045
7 | CCGGATTA | -0.00605
8 | ATGAGGGG | 0.02
9 | CGTACATC | -0.131
10 | ATACTCAC | -0.133
11 | GAGTAAGC | -0.221
12 | ACCAGAAT | 0.217
13 | ATTGCTTA | -0.0684
14 | CTGTCGCA | -0.146
15 | ATAACGGC | 0.0836
16 | CATAAACG | 0.0839
17 | ACACATCG | -0.0862
18 | CCACAGCG | -0.0732
19 | GCCCGCCA | -0.153
20 | ATTTTGTG | 0.208
21 | ACCCGCAT | 0.271
22 | GGCGTCAA | 0.198
23 | CAGCTTAG | -0.169
24 | ATTTGCAC | 0.0494
25 | CGCCCCAG | -0.237

Row | Sequence | PBM E-score
26 | CCTTGATC | 0.193
27 | ACATGAAG | -0.0619
28 | CACAATGG | 0.0532
29 | CATCATTA | 0.167
30 | TTATATAA | 0.331
31 | AGCGGCGG | 0.103
32 | AGCATATA | -0.0568
33 | GAGCATGC | -0.334
34 | GGGTCAGA | 0.0808
35 | CTCTACAA | 0.117
36 | AGATACAA | 0.129
37 | ACAGCGGA | -0.165
38 | AAGCGGGA | -0.182
39 | CCAACTGC | -0.165
40 | CACCGAGA | -0.0426
41 | AACCGCAC | 0.25
42 | GTTGATTA | 0.193
43 | CAGCACAA | 0.0977
44 | ACGGGGCT | -0.31
45 | CTAATCAG | -0.094
46 | CCGCCATC | -0.148
47 | TATCTACA | 0.154
48 | GAGGTAAC | 0.365
49 | ACAAGAAC | 0.268
50 | CGCGGCCA | 0.0146

Row | Sequence | PBM E-score
51 | CATCCTCC | -0.176
52 | GTAGCTTA | 0.116
53 | AATGGCTG | -0.0933
54 | AGAACTTG | -0.0173
55 | ATGTGAGA | 0.0533
56 | CGTGGCTC | -0.23
57 | CAACCCTA | 0.442
58 | ATAGTCGC | -0.00369
59 | ATCATTAC | 0.0815
60 | ATTACTCG | 0.153
61 | ATACTGTG | -0.013
62 | CCTCGCCC | -0.0823
63 | CCGCATTC | -0.0743
64 | ACCACTCA | 0.0988
65 | AAGCCAGC | -0.143
66 | CTTCTATC | 0.0389
67 | CCGGCCTA | -0.0184
68 | ACGCAACT | 0.138
69 | CTTGGATC | 0.0534
70 | CGGTGGAA | -0.149
71 | CAAGTCAG | -0.0782
72 | AACTTAAG | -0.0397
73 | GAAGATAA | 0.148
74 | AGGGAAAG | -0.268
75 | ATGGAGTC | -0.234

Row | Sequence | PBM E-score
76 | GAACTGCC | -0.141
77 | GACCGATA | 0.0462
78 | ATCTGCGA | -0.114
79 | CCCGATCG | 0.0686
80 | GATCCGCC | -0.0696
81 | ACTGTGGA | -0.0912
82 | AGGGAGGA | -0.225
83 | ATTCCCTG | 0.0268
84 | GTCGAGCA | -0.236
85 | CGCCTGAC | -0.0944
86 | AATGGTCC | 0.119
87 | CCGCCTAG | -0.134
88 | AGCAGTAG | -0.287
89 | GTAGCTAC | 0.0187
90 | AAGCGCAA | -0.0758
91 | AGACCAGA | -0.047
92 | ATTGCTAA | 0.153
93 | CACATTAG | -0.103
94 | CGGAACTA | 0.141
95 | AGACGACT | -0.212
96 | GGATATCC | 0.0655
97 | GAATATCC | -0.129
98 | CGATACCA | 0.101
99 | CCAATAGA | -0.224
100 | ACATTCTA | -0.0304

Row | Sequence | PBM E-score
101 | AACCGTGC | 0.244
102 | CGGTAGCC | 0.186
103 | CTGACTAA | -0.0753
104 | GGGTATAA | 0.293
105 | CTGTATCA | -0.181
106 | GAAGAATC | -0.133
107 | CAGTTCGA | 0.0226
108 | CACTCTGA | -0.21
109 | AGTGGGAA | 0.022
110 | ATTGTTGG | 0.169
111 | CCGGGTAA | 0.246
112 | GACTACCA | 0.00811
113 | CGAGCCCC | -0.18
114 | GAGGCTGC | -0.0982
115 | AGCACTAG | -0.136
116 | GTTCATCA | 0.00086
117 | CTGATATA | -0.111
118 | GCAGATAC | 0.0429
119 | CTGCGAAA | -0.0193
120 | CGATCACC | 0.226
121 | ACGACTCT | -0.163
122 | CTGTAGTA | 0.23
123 | AGCTGACT | -0.0774
124 | CATCTGGA | 0.0797
125 | GATTTTTA | -0.0197

Row | Sequence | PBM E-score
126 | CCTTCGAG | 0.0427
127 | CCGGCGTA | -0.224
128 | AACGTGCA | -0.0584
129 | GATAGCCC | -0.125
130 | AACGTGGG | -0.317
131 | CCTCTCGA | 0.0879
132 | ATGCTCTG | -0.275
133 | AGCATCCG | -0.265
134 | CAATGTTC | -0.213
135 | GGATTGTA | -0.18
136 | ACGGCGCC | -0.258
137 | CAACCCTG | 0.419
138 | ACCTACGT | 0.0527
139 | GGGACTTA | -0.131
140 | CTACGAAG | -0.0279
141 | ATCGCACA | -0.154
142 | GCGCATGA | -0.185
143 | CATGCACA | 0.0313
144 | ATTTGGAG | -0.121
145 | ACCCTATC | 0.276
146 | TCTGAGCA | 0.0698
147 | GAGACGTA | -0.0756
148 | CGTACTCC | -0.151
149 | CCTATTTC | 0.093
150 | ACATTAAA | 0.0208

Row | Sequence | PBM E-score
151 | CCTGTATA | 0.0101
152 | AGTCATAT | -0.0414
153 | ACCGATCG | 0.00036
154 | AAGCTTAG | 0.0125
155 | CGACAGGA | 0.0413
156 | TACCTCCA | 0.303
157 | AGTGCTAA | -0.148
158 | ACACTACC | 0.254
159 | GTCAGCCA | -0.168
160 | AGGGATTG | -0.154
161 | GCGCGGTA | 0.114
162 | ACCGAAAA | 0.267
163 | ATATAGGC | -0.0262
164 | CAACAAGC | -0.036
165 | AACCTTAA | 0.352
166 | GGGTGCTA | 0.176
167 | GGGGCTAA | -0.131
168 | TGATTTAA | 0.101
169 | GCAATTGC | 0.0259
170 | AAAGTCTC | -0.202
171 | ACAGCGAG | -0.153
172 | CCACGTGA | 0.031
